In the supplement of paper PMC10681739:
± gives the standard deviation of the averaged measurements. The full ranking holds about 4,100 sequences; the median of “arbitrary fluorescence units” is about 780, and the highest 2% start at about 22,000. The list shows a part of the results.

Each sequence was assayed against T1, ETS1 (UniProt P14921) (assay: ETS1 binding intensity (PBM fluorescence), ETS1 alone (arbitrary fluorescence units); higher = stronger binding). Conditions: ETS1 concentration 1 nM; RUNX1 concentration 0 nM.
T1 sequence: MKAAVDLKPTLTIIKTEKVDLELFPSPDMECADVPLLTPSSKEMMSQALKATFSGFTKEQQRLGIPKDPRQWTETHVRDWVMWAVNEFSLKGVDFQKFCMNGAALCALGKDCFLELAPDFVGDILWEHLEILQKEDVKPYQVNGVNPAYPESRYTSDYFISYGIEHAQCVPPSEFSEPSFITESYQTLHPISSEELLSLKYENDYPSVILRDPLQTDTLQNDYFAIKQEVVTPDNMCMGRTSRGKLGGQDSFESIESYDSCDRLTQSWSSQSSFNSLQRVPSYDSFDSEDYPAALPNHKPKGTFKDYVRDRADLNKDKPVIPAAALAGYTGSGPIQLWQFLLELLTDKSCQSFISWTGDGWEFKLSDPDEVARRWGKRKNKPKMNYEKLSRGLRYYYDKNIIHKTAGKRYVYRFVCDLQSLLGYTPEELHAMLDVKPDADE
Summary of the method: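 Double-stranded Agilent 4 × 180k arrays held 36-bp genomic probes whose RUNX1 partner site was mutated, and these were incubated with 1 nM full-length recombinant human ETS1 in the absence of RUNX1 under standard PBM protocols. Bound protein was labelled with anti-ETS1 antibody (Cell Signaling Technology 14069) plus an Alexa488-conjugated secondary and read on a GenePix 4400A, with four spots printed per sequence. Binding level is reported as raw spot fluorescence intensity summarised over replicate spots.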

Sequence	ETS1 binding intensity
TGCTCCACTCGGAAGTGGTGCCGAAGCTCTTCGATG	905
GCTCAGCGGCCTCGCGCCATCGTTTCCGGTGGGCAG	8000
TGGGGCTAGGCTTCCGGGGCTCTGCAGTCCTCGGCC	3440
CTGGTAAGGAAGCTGGCCAAAATCCACTGAAACCAA	451
CTCTTTGTAGCTCCCGCGAGAGTCCGCCTTCCGCCG	437
ACCCCCACCCCCGCCTTCTTGTGCGAGGATGTCATG	447
CATCTGCGTCCGGCACCCAGGAGGCTCGTTGTCCGC	1410
CTCTTCCGCTCAGTCATCCTCAGAGGTGCTAAGACT	10100
GCTGAGGGCGCCGGCAATCGAGTGGCTTCCTGGCCA	475
GTGATAAGAACGACAGGCCACTTCCCAAAGATCAAA	531
CCCAGGGCTGAGGGCTCCTGAGCCAGGAAATGGGTC	382
TAAGCCCGCTGTAGATTGTTATGTCCGGAATCCGCT	368 ± 6
CATTTCCTGATCTGACCTCTGGGGAGGCCAGAGAGC	11200
CCAGCCCAGGAAACAAGGAACCCCAAAGCTACAGGA	652
CTGCTGAGTGGCATCCGTGGTGTGCGTACGGCACCG	560
GGAGAAATAGAGCGCGCTTTGTGCGGAAGCTGTCAG	367
TGAGTCAGTAGCCCCAAGTAGAACAGGAAGTGGAAA	2530
GGTGTTACACCCCAGCCTTCCAGGAAGGGGCAGGGG	489
AAGAGGAAATAAATACCAGAGTGAACTCACAAACCT	594
ATTGCTTCCGACGCTACTCCTGCCGGGTCACGACAG	1800
TCTTTGCTGGTGGCTACCTTTACAGGAAATCTCTTA	482
AATTAAATTGTCGTAGATAGTAAAAGGAAGTAGTTA	591
AGCTTTCTCTGGTGTAAACAGGAAGCGAGACCATGT	2480
TCCCAGTTTATGGGAAGGGTTGAGGGAAGTGAGGGG	531
CGCCGCTCAACTTCCGGCAACCAGAGCTCTCTCTGA	18300

Sequence	ETS1 binding intensity
GCGGGGCCGTACGGTAGGCGGAAAAGATGCGCAATT	411
AGGAGAGGATGTTGCTTGAAGGTGTTGTCTCCTCCA	1010
GCGGCCGGGATGTGGAGGGTGAGCGCTGTGAGCAGC	526
AGCTTCCGAGTCTGTTGTGGAGTGGGAACAGCGACT	2510
CTTCACTATGCATCCTGTACTGCAACGACACCAAAC	3580
TTTGGGGTAACCTACAGAATTATCAGGATGTCTCAG	431
AAGTGATCGCGAGGTGCGCCGGCCCGCGAGGAAACG	310
GGGGGGAAGTGGCGCCACCAGGTGGAGGTTGCTTTG	986
CTTCCTTCCCTTCCTTCTGCTCCCTCCCAGAGCCGC	852
TGACGGATGCACGGGCGCAGCGGCGGCCTGCAGGGG	422
GGCCGGCTTCCGGGGCGGGTGGAAAGGAGCCCCAAG	7570
CGCCCCGGCAGCCGCCCACGTCCGGGGGCCAGGCCT	802
CTCCGCCTTTCACTTCCTAGTAACCCCCCTCCCTTG	975
AGACTTCACCGAAGCTTGCTGCCTCAGAGGATGTCA	360
CTCCGCTGTCCCCTGCAGGCACCGAGGGCGGAACCA	347
GTGGCTGCTGTGCTCAGGCTGTTCTTTCCTGTTGCT	373
TTGAAAAGGAAGTTCATTTGTACTGAGGTGGATTTA	1170
TATCAGGAAAAGCGTCTCAGTCCTCCTTGTGAGCGG	371
GAGAAAGCTGCAGACACTGCTTACAGCTTTTCCTGT	444
CCGCGTCCTCAGAGGTCCGGCCGGAAGTCACCTGAA	8340 ± 1500
CTGACTGTGATAAACCGATCTGGCTTCAGGAAGTCC	360
TTGAGGGTGTGTCTCTTTCGGTCTTACATCCTAACA	478
AGGGCATTTCCTTTGGGGCTGGTGCTCACGGACAAC	6490
GAGCTGCTCCGGAAGGGTGGTGTGTGCTCAACCTTG	678
TAGGCCGGAAAGCACCACCGTCCTCCCGTAGGCCGC	860

Sequence	ETS1 binding intensity
GTGGAAGAAATCGCTTCGGCAGCAGAGGAAACAGCA	402
GCGTCGGCTACAAGGCGTTTTACGTTCCGCCCCCTG	300
CGGCCTGCGCGGGGAGTTTAGGGAAGTGGCAGGGTG	321
CTGCTGGGCCCCTTCCTGTCAGCGGCTGCTCTTTAC	2950
AGCTTAATGGGGTTGGAGAACATCCTGTCTTATTGA	3940
CTTCTAGGAAATGTAGTTCCTGGGCCCTCAGCCGGG	413
CCCCATCCTTGACAACAGGACCAGGAAGTCAGGGCA	1230
GTATGGGAAGTGATCTGGCTGCAAATCGCAAGAGAG	488
ACTGGGGTTTCGGCGTCTAAGTGTTTCCGGTGGATT	3980
TGAAGAACCAGCAGCAGCTCCCAGGATGAACTGGTT	325
ACAGCATTTCCTGGTGGCCAGATATCTGAGCTTTCA	7160
TCCCCTACCGTTAGTGGAAGAAGATGGCGGAAGGCG	451
GGATGAACAGGAAGCTAAAGTAAATACGACAGTGAC	2270
CTCAGCCCTCCGCTGCGCGGCCGGAAGTCGGAGGTT	4040
GCCCACGCCGCTGGGAGGTGAGACTGAAGGAAGCAC	402
GGGCCGCGATCAGGGCTGGCCACGGGAAGCAGACAG	302
AGACCCGGAAATGGTGGGTGTTTCTTGCAACCTCGG	5480
CTGGGGACCTGTGATTTGCTGGCGGAAACAAGTGAT	418
TAAGTGCAGGAAACGGCTGTGTAGGTGTCAGTGATT	1970
CCAGACAGTTTCCTCTGGTTGAGGGTGATGGTTCCA	1650
TTCTCATTTGTAGGTATCTGACAACATCCTCCTCTC	581
AAAACAAGGACTTCCGCCTCCCTGCAGTCCCTCCCC	9360
AGCAGGAAGTATGTTGAAAGTCATAATCACAGCAAA	2060
ACAGGAAATGTTAGAGGTTGAGTTAGAGGTTATGAG	629
AGGCCGCCTACAGGATGTTGGAAACTACAGGGCCCG	2640

Sequence	ETS1 binding intensity
ACAGGAAAAGCTGTAAGCAGTGTCTGCAGCTTTCTC	437
TCCTGGCTGCCCCCAAGGCCAGGAAGAGCGAAAACA	434
ACCATCCTGTAGTCTGTTAAGTGAGCAACAGCATTA	4970
GGCGGGAGAGGAAGCCGGGCGGCCGAAGCTGCCTGT	811
GGAGCAGGAAGCGTCGCCGGGGGGCCTACAAGGGTA	1810
AGCGACAGCGGATGCTCTCTGGCCGTAACATTCTTT	1480
ATAGACCCAGCCCGTCCGGTAACCGTGCTCCTCGAT	454
CCCCGTTACGCCCATCCGGCTCCCGAATAGGGCGTC	2610
AAGGGCCAGGAAGGGTGGAGTCTTTTCGGGGTGAGA	406
AGCGTCCGGTCGCGCCGCGCTCTAGCACCCCAGCAC	11900
GAGACGTGTGATAATTACTGTTTTCCAGGAAGTGGC	495
GGAGAGTTGACTTCCGGCGGCTTGGGGGAGTGCTGG	21100
ACTCTTCGGCCCAGCTGCTTCTGTGCACAGGAAATA	743
ACTACACTTCCCGGCAGGGACAGCGGCCCAGCGTAC	2100
GTGTACGGAAGCTGAGAGGGCCCGAGGGTAGGCATG	521
TTCAATCACAGGAAACAGACGTCACCCTCAGACCTA	1570
GAAAAAAATGAGCTTCCTTTAACCAGAACTGTATTA	1110
ATCGGAAACCAGTGAGCTCATTAGAATCCGCTTATC	438
AGTTGTGAAACCCCAAAACACAGAAAGGAAGTGGTC	527
GGACCGGAAGTAGGTTTCTACCCGAGCGCATTTTAC	27600
GCTGTTTATTTCCGTGCCTGCTGCTGGAGCTTCTTA	2670
TTCTCATCCGGCCGGCTTGCTTTCCCCTGCAGTCGT	4670
TGGTACCCCAAAGCGGCGGCAGGAGGGATGTTTCTG	386
TCCATCCTGATTCTCTCGGACTTTTCACCCGCCCGG	1910
CCCACCCAGGAAGCCGTCCTAACTACAACAGCCCTC	876

Sequence	ETS1 binding intensity
AAACCAGAGGAAGTGGATTCCAACTACAAACCTCAC	1830
CGGCGCGGCGGACGTTGCTGCCGTAGGACGTGCCCG	361
GGCCAAAGCACTTTATCGTGGAGCCAATTTCCTCAG	369
TAAAATCGTTTCCCGACTCGCTCTTCGGCCCCACGC	577
ACCCCAAGCCCATAAACCCACCGGAAGGAACCAACT	1500
GAACGGTGTGTCCACGAGAGTCTAGAGGAAACCAAC	336
TTGGTAAATCTTTTCCTGTGCTGCAGGCCCTTGTCC	1340
AGCAACAACAAAGGAAGTGGCGGCCGCTGGGGGAGG	1540
TATTCATGACATCCTGTCGGGCTTGTAGGCTGCGTA	10900
CTGGAGCCCTCAACAACTCCGGGCGGAAGCAGCAGG	660
GACAAAGCGGCGGCAGGAGGGATGTTTCTGCACTGG	365
GACCACTTCCTTTCTGTGTTTTGGGGTTTCACAACT	11900
AAGATGCCCCCTTCCGCTGGAAAGCGGCAATGCCCA	2320
CTGCATGACGTGTGATTTTCATCTTCCGCAGGCGTG	411
GCACTTCCGGAGCCGGGCGTCTACAGGCCGAGGCCA	28500
TCTACATCCTGCAGTTCTCCATTGGGGCCATTAGGT	7570
TCCTATATACTTCCGTTTGCCTCGCGGATTCTTTCT	8300
GCGCTACCGGTTTCCGAGACGCGACGACACAACCAA	2520
GGGGACGAATCGGTCTCGGTTCCGCCCGGCTGGGAG	362
ACGTCAGCATCCGCCGGGCTCGCGATAAGGTGTGAG	4150
GCTCGCAGCCCCAAGAGGTGGCCTTCGGTTCCGGGG	382
GATCTCTTCCCCAGGAAGGGTGTGGACTAGGGCCTG	389
CCAGCCTCACCCGCCCTCACTTCCGCTGACCCGCCC	3710
TGCTTCCCGTCCGTGTCGCGGCCCTGGGGTTGGCGG	8550
AGAGGAAATCACACTCTCACTGGGGTTCTCGCAGCT	447
